# Measurements: PubChem BioAssay AID504332 (National Center for Advancing Translational Sciences (NCATS), 2011)
# Out of some 350,000 compounds screened, about 31,000 (8.9%) were called active. Inconclusive means that the source gave no clear call. Such entries were picked first, then a sample of the others. Calls follow the shape of the dose curve; as a rule, active = well fitted inhibition curve with a large enough effect; inconclusive = small, poorly fitted or top-dose-only effect; inactive = no such curve, though single readings can be large or run the other way. A potency beside an inconclusive call is a rough fit, not a confirmed value.
# Molecular target: Histone-lysine N-methyltransferase EHMT2 (Homo sapiens) (UniProt Q96KQ7)
# Test: qHTS Assay for Inhibitors of Histone Lysine Methyltransferase G9a; also: nearly all actives have a fitted effect of over 75% in size
# Conditions: G9a H3K9 monomethylation, AlphaScreen, 2 h; activity, negative = inhibition: at 59 µM (top of the series) unless noted
# In short: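 G9a (20 nM) preincubated 15 min RT with compounds, then 500 nM biotinylated H3K9 peptide and 20 uM SAM added; 2 h RT reaction. Monomethyl-H3K9 product detected by AlphaScreen with anti-H3K9me1 antibody, streptavidin donor and anti-rabbit IgG acceptor beads.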
# % is scaled to controls: 0 for no effect and ±100 for the full control effect; potency is read from the fitted curve at half-maximal effect; tags tell the direction and shape of the fitted curve.
# Chain of UniProt Q96KQ7 (Q96KQ7 whole entry, looked up): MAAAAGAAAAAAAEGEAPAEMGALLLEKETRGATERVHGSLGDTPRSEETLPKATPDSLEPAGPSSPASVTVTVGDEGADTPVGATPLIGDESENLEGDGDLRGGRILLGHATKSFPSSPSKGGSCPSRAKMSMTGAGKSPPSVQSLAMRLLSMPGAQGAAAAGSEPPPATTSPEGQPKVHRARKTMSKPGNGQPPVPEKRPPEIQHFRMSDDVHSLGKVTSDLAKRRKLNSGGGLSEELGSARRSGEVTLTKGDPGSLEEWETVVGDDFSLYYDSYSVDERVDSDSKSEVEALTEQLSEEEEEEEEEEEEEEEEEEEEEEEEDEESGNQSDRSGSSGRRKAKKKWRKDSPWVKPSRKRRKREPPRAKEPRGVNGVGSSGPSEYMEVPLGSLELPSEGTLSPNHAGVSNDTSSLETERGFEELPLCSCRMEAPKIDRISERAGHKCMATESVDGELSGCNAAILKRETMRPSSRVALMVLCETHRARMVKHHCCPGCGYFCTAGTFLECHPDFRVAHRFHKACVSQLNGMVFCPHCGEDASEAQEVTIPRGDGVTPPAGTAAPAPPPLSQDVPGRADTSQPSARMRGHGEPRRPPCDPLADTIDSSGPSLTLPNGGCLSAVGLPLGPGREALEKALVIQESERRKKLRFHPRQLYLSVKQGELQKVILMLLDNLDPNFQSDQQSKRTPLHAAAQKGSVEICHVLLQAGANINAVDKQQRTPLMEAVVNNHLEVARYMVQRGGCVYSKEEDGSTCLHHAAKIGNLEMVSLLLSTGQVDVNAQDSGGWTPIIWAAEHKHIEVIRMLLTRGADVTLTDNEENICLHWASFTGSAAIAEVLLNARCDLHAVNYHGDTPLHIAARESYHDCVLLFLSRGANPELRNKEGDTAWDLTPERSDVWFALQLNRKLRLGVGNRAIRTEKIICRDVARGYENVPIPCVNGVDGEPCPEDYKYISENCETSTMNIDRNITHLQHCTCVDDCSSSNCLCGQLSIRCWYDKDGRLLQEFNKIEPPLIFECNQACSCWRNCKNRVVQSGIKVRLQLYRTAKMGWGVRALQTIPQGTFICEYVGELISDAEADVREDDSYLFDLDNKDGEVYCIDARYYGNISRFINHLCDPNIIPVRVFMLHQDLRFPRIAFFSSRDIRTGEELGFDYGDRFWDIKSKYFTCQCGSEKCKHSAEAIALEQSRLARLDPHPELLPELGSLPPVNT
Structure (SMILES),"activity, negative = inhibition",Potency
Clc1ccccc1Cn1cccc1C1=NC(Cc2ccccc2)CO1 (centres undefined),inactive: 47.2%,
CC(C)c1ccc(NC(=O)C(c2ccccc2)N(Cc2ccco2)C(=O)CC2NC(=O)NC2=O)cc1 (centres undefined),,active: 14.1 µM
CCC(C)(C)C(=O)Nc1ncc(S(=O)(=O)c2ccc([N+](=O)[O-])cc2)s1,,active: 50.1 µM
COc1cc(OC)cc(-c2nnc(N(C)C(=O)c3ccncc3)s2)c1,inactive: -3.36% [at 102 µM],
Cc1cc(C)cc(Nc2ccc(C(=O)O)cc2N)c1,,"inconclusive: 31.6 µM [inhibitor, single point]"
COc1ccc(-c2nc3ccc(NS(C)(=O)=O)cc3o2)cc1,inactive: -31.3%,
Cc1cc(=O)n(C)c(=O)n1CCCCCN1CCCC1,,"inconclusive: 3.55 µM [inhibitor, single point]"
O=C(NCCN1C(=O)S/C(=C\c2ccc(OC(F)F)cc2)C1=O)C1=COCCO1,,"inconclusive: 79.4 µM [inhibitor, partial curve, poor fit]"
COc1ccccc1OCCn1c(SCC(N)=O)nc2ccccc21,,"inconclusive: 89.1 µM [inhibitor, single point]"
Cc1ccccc1OCc1nc2ccccc2c(=O)n1/N=C/c1c[nH]c2ccccc12,inactive: -5.54% [at 102 µM],
COc1ccc(C2CC(c3ccc(Cl)c(Cl)c3)Nc3nc(N)nn32)cc1 (centres undefined),,"inconclusive: 89.1 µM [inhibitor, single point]"
C=CCOc1ccc(/C=C2/C(=O)ON=C2C)cc1OCC,,active: 44.7 µM
Cc1[nH]c(=O)[nH]c1CN1CCCCC1,,"inconclusive: 28.2 µM [inhibitor, single point]"
CCC(C)C(NC(=O)C1CCC(C)CC1)C(=O)NC(CCSC)C(=O)OC (centres undefined),,"inconclusive: 1.58 µM [inhibitor, full curve, poor fit]"
CCOC(=O)C1=C(N)Oc2ccc3ccccc3c2C1c1cccc(O)c1 (centres undefined),,"inconclusive: 20 µM [inhibitor, partial curve, poor fit]"
CCCC(CCC)c1nc2ccncc2[nH]1,,active: 50.1 µM
Nc1nc(-c2ccc(Br)cc2)cs1,,"inconclusive: 0.282 µM [inhibitor, full curve, poor fit]"
COc1cc(/C=N/Nc2cccc(C)c2)cc(Br)c1O,,active: 8.91 µM
CN(C)c1nc(-c2cn(CCC#N)c3ccccc23)cs1,,active: 28.2 µM
O=C(CCCNS(=O)(=O)c1cccs1)N1CCc2ccccc2C1,,"inconclusive: 6.31 µM [inhibitor, single point]"

Structure (SMILES),"activity, negative = inhibition",Potency
Cc1c(Br)cccc1NC(=O)c1sccc1-n1cccc1,,"inconclusive: 8.91 µM [inhibitor, partial curve, poor fit]"
O=C(NCc1cccc(Cl)c1)c1cnc(N2CCCCC2)c2ccccc12,inactive: 45.7%,
Cc1ccc2[nH]c(=O)c(CN(CCO)Cc3nnnn3CCc3ccccc3)cc2c1,inconclusive: -88.2% [inhibitor],
COc1ccccc1N1CCN(CCCNC(=O)Nc2ccccc2)CC1,,"inconclusive: 22.4 µM [inhibitor, partial curve, poor fit]"
COc1cc(/C=N/N2CCN(C3c4ccccc4-c4ccccc43)CC2)cc(OC)c1O,,active: 1.58 µM
NCCCNC(=O)c1ccc(/C=N/O)nc1,,active: 2.82 µM
O=C(Cc1ccccn1)Nc1ccccc1,,active: 39.8 µM
CCOC(=O)CSc1n[nH]c(NC(=O)c2cccc(C(F)(F)F)c2)n1,,"inconclusive: 50.1 µM [inhibitor, single point]"
Clc1ccccc1-c1nc(/C=N/N2CCOCC2)c2ccccn12,,active: 28.2 µM
O=C(Nc1ccccc1F)C1CCN(C(=O)NCc2ccccc2)CC1,inactive: 18.6% [at 102 µM],
CCCNC(=O)Nc1cc(S(=O)(=O)CC)ccc1O,inactive: 5.92% [at 102 µM],
O=C(O)c1cc([N+](=O)[O-])ccc1NCc1ccccn1,inactive: 23.3% [at 2.33 µM],
O=C(CSc1nc2c([nH]c3ccccc32)c(=O)n1-c1ccc(Cl)cc1)NCc1ccccc1,inactive: 1.01%,
COc1cccc(C(=O)N(Cc2ccc(N(C)C)cc2)Cc2ccco2)c1,,active: 12.6 µM
CCc1nc(N2CCN(S(C)(=O)=O)CC2)c2c3c(sc2n1)CCCC3,inactive: 7.42% [at 102 µM],
COc1ccc(OC)c2c(C)cc(N3CCN(C(=O)c4ccc(C)cc4)CC3)nc12,,"inconclusive: 70.8 µM [inhibitor, single point]"
O=[N+]([O-])c1ccc(N2CCN(S(=O)(=O)c3ccccc3[N+](=O)[O-])CC2)cc1NCc1cccnc1,,"inconclusive: 79.4 µM [inhibitor, single point]"
COc1ccc(NC(=O)c2cc(-c3cccs3)on2)cc1,inactive: 15.4% [at 102 µM],
CC(=O)N1c2ccc3ccccc3c2C2C=CCC2C1c1ccc(Br)cc1 (centres undefined),,"inconclusive: 3.55 µM [inhibitor, full curve, poor fit]"
